Test results published in publication PMC3605390, “Characterisation of ATP-Dependent Mur Ligases Involved in the Biogenesis of Cell Wall Peptidoglycan in Mycobacterium tuberculosis” (PLoS ONE, 2013).
Results are given in words; binding and its absence hold for the method and conditions named.

Biological target: purified recombinant M. tuberculosis MurF synthetase (Mycobacterium tuberculosis H37Rv) (UniProt P9WJL1)
Test: SEC; both purified

B1: purified recombinant M. tuberculosis MurF synthetase (enzyme, UniProt P9WJL1 1-510)
chain: MIELTVAQIAEIVGGAVADISPQDAAHRRVTGTVEFDSRAIGPGGLFLALPGARADGHDHAASAVAAGAAVVLAARPVGVPAIVVPPVAAPNVLAGVLEHDNDGSGAAVLAALAKLATAVAAQLVAGGLTIIGITGSSGKTSTKDLMAAVLAPLGEVVAPPGSFNNELGHPWTVLRATRRTDYLILEMAARHHGNIAALAEIAPPSIGVVLNVGTAHLGEFGSREVIAQTKAELPQAVPHSGAVVLNADDPAVAAMAKLTAARVVRVSRDNTGDVWAGPVSLDELARPRFTLHAHDAQAEVRLGVCGDHQVTNALCAAAVALECGASVEQVAAALTAAPPVSRHRMQVTTRGDGVTVIDDAYNANPDSMRAGLQALAWIAHQPEATRRSWAVLGEMAELGEDAIAEHDRIGRLAVRLDVSRLVVVGTGRSISAMHHGAVLEGAWGSGEATADHGADRTAVNVADGDAALALLRAELRPGDVVLVKASNAAGLGAVADALVADDTCGSVRP
- binding: no binding
